The list shows a part of the results.
Each sequence was assayed on PfSIP2 AP2 domain 1 (GST-tagged) (assay: gcPBM binding intensity (ln(normalized median fluorescence intensity)); higher = stronger DNA binding).
Procedure, shortened: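 The highest Masliner-normalised natural-log median intensity across replicate spots of either probe orientation is reported as binding intensity. GST-tagged P. falciparum DNA-binding domains expressed in E. coli were applied for 1 h to an Agilent 4 × 180k array of primer-extended double-stranded 36-bp intergenic genomic probes plus negative controls, and bound protein was detected with Alexa488 anti-GST antibody and scanned at 488 nm.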

Row | Sequence | gcPBM binding intensity (ln)
1 | ATTATAAACCATAATTAACACACAAAATAAGTTACA [CACACA_site9057] | 6.93
2 | AAAAAAAAAAAAAAAAGTACACAAATAGATTTATAT [XGTACX_site3727] | 7.65
3 | ATTCTATTTTTTATAAAACCATGTCATCAACATAGG [CACACA_negctrl_site237] | 7
4 | CATCCATATAAAATATGTACATATATATATATATAT [XGTACX_site5859] | 9.25
5 | TCCTTTCAACCATATATAATGACATGTACTCAAAAA [GTGCAC_negctrl_site417] | 7.39
6 | TATTTTAGTAAAGGTGGTACTTTTAAGTTCATGTAT [XGTACX_site1854] | 7.21
7 | TATATATCAAGACACACACACATATATTTATTTATA [CACACA_site7733] | 7.11
8 | GATAATTTATTTTTTCGTACACAAAATATAATATAT [XGTACX_site1470] | 7.28
9 | TCGTGAGAAAATATTACACACATTTACTATAGTATC [CACACA_site3444] | 6.77
10 | TTTTTTAAAGATTACTCAAAAAAATAAAAAAATAAA [GTGCAC_negctrl_site222] | 6.82
11 | TGAGTTCAACAAAGACGTACAAAACCAAAAATATAA [XGTACX_site8931] | 7
12 | TTTTTTTTTTTTTTTTGATACATTAACCTACAATGG [GTGCAC_negctrl_site625] | 6.95
13 | AAAAATAAAAAAAGCACACACATATAAATAAATATA [CACACA_site6968] | 6.87
14 | TAATTTTTCTTTTATTAACACACATATAAATAAATA [CACACA_site8935] | 7.04
15 | CCCAATAATTAAACAACACACATATTTATAGGTAAT [CACACA_site7445] | 6.96
16 | ATATATTTATATATTACACACAATATTGTAGACATA [CACACA_site4669] | 7.05
17 | TATATGACAAGATAAAGTACAAATTTGTATATATAT [XGTACX_site3027] | 7.68
18 | ATATATATACTGTGTACACAAATATATATTATATAT [CACACA_site6104] | 7.67
19 | TAAAATAAAAAGTTTACACACATATATAATTTTAAT [CACACA_site662] | 6.7

Row | Sequence | gcPBM binding intensity (ln)
20 | AACCATTTTAAATATGCACACAGATGCACTAACACA [CACACA_site8565] | 11
21 | GAATTATATAATTAAAGTACATTGTTTATATAATCA [XGTACX_site7246] | 7
22 | TTTACACGTACGTGTACACACAAAAATATGTTTTTA [CACACA_site995] | 7.18
23 | AAATTCCACGGACACACACACATATAAATAAATAAA [CACACA_site4811] | 7.52
24 | TGTAGTCTGGAGAAAAGTACATAGTATCTGGTAGCT [XGTACX_site2031] | 6.94
25 | GAAAGAAATAAAGGTGGTACATAAATAAAAACTAAG [XGTACX_site4826] | 7.38
26 | ATTTATATGGTTTGCACACATAACAACTATGGTTAT [CACACA_site3632] | 7.22
27 | AACATAAAAAAAATATGTACATATATAATATATATA [XGTACX_site3764] | 7.85
28 | AAAAAAAATTTCTCAAGTACACAATTTTTTTTTGTT [XGTACX_site5874] | 6.85
29 | TTTTTTTAAATATATAAGATAAATTTATAAATAAAT [XGTACX_negctrl_site282] | 6.58
30 | TTTTATTTTTATAACAGTACATAAGTAATTGTTCAA [XGTACX_site7574] | 6.89
31 | TTATAATAAAAAAATTCCTAAGTCCGTATATATTAT [CACACA_negctrl_site1698] | 6.72
32 | TTTTATCATCACATTTGTCAAAAAAAAAAAAAAAAA [CACACA_negctrl_site1296] | 7.2
33 | ATATCAAACTAGAATGTGCGCATGCATTCAAGTTTT | 7.12
34 | TTATGTTCATTATATGCACACATATATATAAATGTA [CACACA_site8947] | 7.47
35 | GATTTTATAATTTCTACACACATATAAGAATATTCA [CACACA_site2802] | 7.02
36 | AAATTTGGATGACTCAATAAATTATAATATATATAT [CACACA_negctrl_site298] | 8.72
37 | ATATTCTTTATATGCATACACACCTAATATAGGGAC [CACACA_site1533] | 7.31
38 | TTCAATTTTTTAAAGCGTACATATAAAAGTTATATG [XGTACX_site731] | 7.36

Row | Sequence | gcPBM binding intensity (ln)
39 | AATCATTTGTTATAAGTCTAAAATTATTAGAATATT [XGTACX_negctrl_site151] | 6.82
40 | ATTATTACATATAATGCATGTGCATATATTTTTATA [TGCATGCA_site701] | 8.42
41 | TATATTTTATATTAGTGTACAAATTTCATTTTTCAT [XGTACX_site2204] | 6.98
42 | AATATATATAAAAAAGTGCATTAGGATAACCATATA [GTGCAC_site9590] | 8.13
43 | TATATATATATATTCACACATATAGTATTGTATTTA [CACACA_site5147] | 9.25
44 | ATATATTTATATTTGTGTACATATTTATTATATTTA [XGTACX_site404] | 7.34
45 | AATATGAATATCTATACACACACATATATATACACA [CACACA_site8459] | 6.94
46 | ATTTGTGACCACACAAATAAATAAATAAAAAAAAAA [TGCATGCA_negctrl_site328] | 6.94
47 | TAATAATAGAAACACACACACATTTTTAATAATACA [CACACA_site1216] | 7.01
48 | AAGAAGAAAAACCATTGTACGAACTAACATATATAA [XGTACX_site3226] | 6.91
49 | GGTATACATAATACTTGTACTAGGCAACAATAAGAT [XGTACX_site1437] | 7.09
50 | TGTTAAAAGAAAAAAAGTACAAAAAATTATACATTT [XGTACX_site467] | 6.8
51 | AAATGTATATATGTATGTACATATATATATATATAT [XGTACX_site5778] | 9.37
52 | AGTTTCTATTTAGTGTGTACTTAAGAAAAATATCTC [XGTACX_site82] | 7.34
53 | ATAAACTGAGTGGTTACACACAAAACCAATAATTTT [CACACA_site3478] | 6.83
54 | ATATATATATATATATGTACTCATATTTTATTATTT [XGTACX_site898] | 9.51
55 | TCGCAAATAAATTAATGTACACATATATATATATAT [XGTACX_site5145] | 9.65
56 | TATTGATAATTTTATATATACATACATAAATAAATA [CACACA_negctrl_site1687] | 6.65
